{"source": "PubChem BioAssay AID504333", "about": "(National Center for Advancing Translational Sciences (NCATS), 2011)", "note": "The whole screen tested about 360,000 compounds, of which about 16,000 (4.4%) were called active. Inconclusive results, whose numbers are uncertain, are shown with a selection of clear calls. The call rests on the fitted dose curve; in most records, active means well fitted inhibition curve with a large enough effect; inconclusive means small, poorly fitted or top-dose-only effect; inactive means no such curve, though single readings can be large or run the other way. A potency beside an inconclusive call is a rough fit, not a confirmed value. Potency means the concentration at half of the fitted maximal effect; tags describe the fitted curve by direction and shape.", "data": [{"target": "Bromodomain adjacent to zinc finger domain protein 2B (Homo sapiens) (UniProt Q9UIF8)", "sequence (Q9UIF8 whole entry, looked up, the tested form may be a part)": "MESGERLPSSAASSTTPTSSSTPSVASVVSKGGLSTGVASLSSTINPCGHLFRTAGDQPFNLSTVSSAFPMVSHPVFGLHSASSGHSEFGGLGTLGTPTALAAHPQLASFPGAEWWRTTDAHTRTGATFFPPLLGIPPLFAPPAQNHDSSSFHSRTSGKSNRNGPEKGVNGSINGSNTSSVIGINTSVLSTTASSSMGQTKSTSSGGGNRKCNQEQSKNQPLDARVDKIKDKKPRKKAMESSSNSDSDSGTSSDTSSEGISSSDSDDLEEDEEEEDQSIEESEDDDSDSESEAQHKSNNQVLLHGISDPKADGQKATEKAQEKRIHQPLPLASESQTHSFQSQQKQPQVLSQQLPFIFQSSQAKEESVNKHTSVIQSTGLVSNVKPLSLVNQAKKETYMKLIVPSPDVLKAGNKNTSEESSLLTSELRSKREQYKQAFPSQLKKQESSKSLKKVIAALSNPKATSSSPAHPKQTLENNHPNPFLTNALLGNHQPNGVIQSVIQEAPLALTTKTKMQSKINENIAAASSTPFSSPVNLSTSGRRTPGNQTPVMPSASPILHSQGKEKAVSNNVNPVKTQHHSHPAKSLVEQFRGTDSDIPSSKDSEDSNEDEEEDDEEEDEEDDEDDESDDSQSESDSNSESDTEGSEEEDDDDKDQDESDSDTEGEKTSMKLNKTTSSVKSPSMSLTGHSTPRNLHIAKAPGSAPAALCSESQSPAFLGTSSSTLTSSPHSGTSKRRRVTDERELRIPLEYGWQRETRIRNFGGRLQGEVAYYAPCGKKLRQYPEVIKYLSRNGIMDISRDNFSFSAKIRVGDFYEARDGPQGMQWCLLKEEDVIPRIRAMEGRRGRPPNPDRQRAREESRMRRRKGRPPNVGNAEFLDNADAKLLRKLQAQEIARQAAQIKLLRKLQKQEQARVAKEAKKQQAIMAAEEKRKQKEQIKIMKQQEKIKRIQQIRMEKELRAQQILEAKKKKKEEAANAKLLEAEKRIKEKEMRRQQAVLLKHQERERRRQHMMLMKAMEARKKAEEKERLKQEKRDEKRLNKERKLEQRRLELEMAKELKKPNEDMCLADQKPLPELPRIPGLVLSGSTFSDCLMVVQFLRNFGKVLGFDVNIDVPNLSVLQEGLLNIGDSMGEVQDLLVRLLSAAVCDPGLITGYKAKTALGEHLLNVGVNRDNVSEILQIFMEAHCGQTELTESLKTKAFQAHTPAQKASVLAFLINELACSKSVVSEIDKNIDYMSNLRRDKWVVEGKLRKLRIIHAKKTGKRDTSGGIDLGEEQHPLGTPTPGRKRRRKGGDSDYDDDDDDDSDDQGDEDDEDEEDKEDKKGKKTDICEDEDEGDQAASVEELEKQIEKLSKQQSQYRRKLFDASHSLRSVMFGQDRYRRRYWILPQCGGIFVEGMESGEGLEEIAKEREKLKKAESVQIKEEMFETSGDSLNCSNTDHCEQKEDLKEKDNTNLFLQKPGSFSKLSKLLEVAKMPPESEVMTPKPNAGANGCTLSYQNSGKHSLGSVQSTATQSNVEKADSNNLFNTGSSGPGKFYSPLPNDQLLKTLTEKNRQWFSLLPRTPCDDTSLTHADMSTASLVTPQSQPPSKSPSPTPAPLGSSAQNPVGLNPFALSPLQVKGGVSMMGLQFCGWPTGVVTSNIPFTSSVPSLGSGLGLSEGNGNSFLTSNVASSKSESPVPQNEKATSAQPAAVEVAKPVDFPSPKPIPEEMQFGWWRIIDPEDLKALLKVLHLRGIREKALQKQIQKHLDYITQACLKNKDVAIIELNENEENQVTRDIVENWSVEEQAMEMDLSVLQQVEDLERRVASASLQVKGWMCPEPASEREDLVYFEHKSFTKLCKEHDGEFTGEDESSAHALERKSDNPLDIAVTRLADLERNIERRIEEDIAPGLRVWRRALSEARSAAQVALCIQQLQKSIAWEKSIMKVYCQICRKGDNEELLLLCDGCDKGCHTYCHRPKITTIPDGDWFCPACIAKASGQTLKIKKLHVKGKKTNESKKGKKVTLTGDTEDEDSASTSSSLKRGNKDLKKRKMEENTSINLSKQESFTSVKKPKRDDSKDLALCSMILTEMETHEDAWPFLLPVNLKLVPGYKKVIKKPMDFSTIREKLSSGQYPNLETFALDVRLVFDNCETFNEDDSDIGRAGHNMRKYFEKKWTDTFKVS", "assay": "qHTS Assay for Inhibitors of BAZ2B; further: nearly all actives have a fitted effect of over 60% in size", "conditions": "AlphaScreen BAZ2B-H3K14Ac peptide displacement; series mostly up to 114 µM", "outline": "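Inhibition is scored as reduced AlphaScreen emission. The BAZ2B/b-H3(5-23)K14Ac complex (50 nM each) in PBS pH 7.4, 0.01% Tween-20 meets compound (up to 110 uM) for 30 min at RT before bead addition.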", "values": [{"smiles": "Cc1nn(C(=O)c2c(-c3ccccc3)noc2C)c(C)c1N=Nc1cc(C(F)(F)F)cc(C(F)(F)F)c1", "Potency": "inconclusive: 56.2 µM [inhibitor, partial curve, poor fit]"}, {"smiles": "O=C(NNS(=O)(=O)c1ccc(Cl)cc1Cl)c1cc2ncc(C(F)(F)F)cc2s1", "Potency": "inconclusive: 89.1 µM [inhibitor, single point]"}, {"smiles": "COc1cccc(C(=O)c2cn(CC(=O)NCc3ccco3)c3nc(C)ccc3c2=O)c1", "Potency": "inconclusive: 56.2 µM [inhibitor, partial curve]"}, {"smiles": "O=C(CCN1C(=O)c2ccccc2C1=O)Nc1cccc(F)c1", "Potency": "inconclusive: 3.55 µM [inhibitor, single point]"}, {"smiles": "O=C(c1ccccc1S(=O)(=O)NCc1ccccc1)N1CCCC1", "Potency": "inconclusive: 3.55 µM [inhibitor, single point]"}, {"smiles": "CC1CCCCC1n1c(-c2cccnc2)n[nH]c1=S", "note": "(configuration not stated)", "Potency": "inactive"}, {"smiles": "COCCCNCCOCCOc1ccc(Cl)cc1Br", "Potency": "inconclusive: 100 µM [inhibitor, single point]"}, {"smiles": "Cc1[nH]n(C(N)=S)c(=O)c1N=Nc1ccc(Cl)cc1Cl", "Potency": "inconclusive: 35.5 µM [inhibitor, partial curve]"}, {"smiles": "Cc1cc(NC(=O)c2cccc(S(=O)(=O)N3CCCCCC3)c2)n(-c2ccccn2)n1", "Potency": "inactive"}, {"smiles": "COc1ccccc1N(Cc1cc(=O)[nH]c2ccccc12)C(=O)c1cccc([N+](=O)[O-])c1", "Potency": "inconclusive: 70.8 µM [inhibitor, single point]"}, {"smiles": "CC(C)CCOc1ccc(Cl)cc1CN1CCOCC1", "Potency": "inactive"}, {"smiles": "O=C(Nc1cccc(O)c1)c1ccc(C(=O)c2ccccc2)o1", "Potency": "inconclusive: 3.55 µM [inhibitor, single point]"}, {"smiles": "Cc1ccc(-c2cccc(NC(=O)C3C4C=CC(C4)C3C(=O)O)c2)o1", "note": "(configuration not stated)", "Potency": "inconclusive: 100 µM [inhibitor, single point]"}, {"smiles": "Fc1ccc(CNC(=S)Nc2ccccc2Cl)cc1", "Potency": "inactive"}, {"smiles": "O=C(O)CCN1C(=O)/C(=C2\\C(=O)N(Cc3ccccc3Cl)c3ccccc32)SC1=S", "Potency": "active: 7.94 µM"}, {"smiles": "CC(=O)Oc1ccccc1N1C(=O)c2ccc(C(=O)O)cc2C1=O", "Potency": "inconclusive: 89.1 µM [inhibitor, single point]"}, {"smiles": "O=[N+]([O-])c1ccc(/C=N\\NS(=O)(=O)c2ccc(F)cc2)o1", "Potency": "inconclusive: 89.1 µM [inhibitor, single point]"}, {"smiles": "O=C(N/N=C/c1ccncc1)c1ccccn1", "Potency": "active: 50.1 µM"}, {"smiles": "O=C(Cn1c(=O)c(CNc2ccccc2)cc2cc3c(cc21)OCCO3)Nc1ccccc1Cl", "Potency": "inconclusive: 89.1 µM [inhibitor, single point]"}, {"smiles": "COc1cc(/C=N/NC(=O)C(=O)NCc2ccco2)cc(Cl)c1O", "Potency": "inconclusive: 79.4 µM [inhibitor, partial curve]"}, {"smiles": "CCn1c(C)nc2cc(C(=O)N/N=C/c3ccc(O)c(O)c3O)ccc21", "Potency": "active: 11.2 µM"}, {"smiles": "CSc1ccccc1OCc1cc(C(=O)N2CCC(Oc3cccnc3)CC2)no1", "Potency": "inconclusive: 39.8 µM [inhibitor, partial curve]"}, {"smiles": "CC(=O)c1cccc(NC(=O)CCN2C(=O)C3CC=CCC3C2=O)c1", "note": "(configuration not stated)", "Potency": "inactive"}, {"smiles": "Cc1ccc(N2C(=O)N(CC(=O)N3c4ccccc4CC3C)C(=O)C2C)cc1", "note": "(configuration not stated)", "Potency": "inactive"}, {"smiles": "O=C(NC1CCCCC1)C(c1ccc2ncccc2c1)N(Cc1ccco1)C(=O)c1ccc2c(c1)OCCO2", "note": "(configuration not stated)", "Potency": "inconclusive: 79.4 µM [inhibitor, single point]"}, {"smiles": "CCN(CC)S(=O)(=O)c1cccc(NC(=O)c2ccc(C#N)cc2)c1", "Potency": "inactive"}, {"smiles": "COCCNCCCCOc1ccccc1-c1ccccc1", "Potency": "active: 56.2 µM"}, {"smiles": "O=C(NCC1CCCCC1)c1ccccc1[N+](=O)[O-]", "Potency": "inconclusive: 89.1 µM [inhibitor, single point]"}, {"smiles": "O=C(NCCCN1CCCC1=O)C1CCN(S(=O)(=O)c2cccc(Cl)c2Cl)CC1", "Potency": "inactive"}, {"smiles": "CC(=O)N1CCN(C(=O)c2cc(S(=O)(=O)Nc3ccc(S(C)(=O)=O)cc3)ccc2Cl)CC1", "Potency": "inactive"}, {"smiles": "CCc1ccc(NC(=O)N2CCN(C(=O)C3CCCO3)CC2)cc1", "note": "(configuration not stated)", "Potency": "inactive"}, {"smiles": "COCCn1c(C)c(C)c2c(NCCc3ccccc3)ncnc21", "Potency": "active: 28.2 µM"}, {"smiles": "O=C(Oc1cccc(C(=S)N2CCOCC2)c1)c1cccc(Cl)c1", "Potency": "inconclusive: 79.4 µM [inhibitor, single point]"}, {"smiles": "Cc1nc2sc(C(c3ccc(F)cc3)N3CCOCC3)c(O)n2n1", "note": "(configuration not stated)", "Potency": "inactive"}, {"smiles": "Cc1ccc(-c2csc3ncnc(OCC(=O)NC(=O)NCc4ccco4)c23)cc1", "Potency": "inconclusive: 70.8 µM [inhibitor, single point]"}, {"smiles": "CCOc1ccc(CNc2ccc3c(c2)nc(C)n3C)cc1", "Potency": "inactive"}, {"smiles": "Cc1ccccc1NC(=O)CCC(=O)N/N=C/c1cc([N+](=O)[O-])ccc1O", "Potency": "inconclusive: 89.1 µM [inhibitor, single point]"}, {"smiles": "N#Cc1c2c(c(Nc3ccc(O)cc3)n3c1nc1ccccc13)CCC2", "Potency": "inactive"}, {"smiles": "Cc1ccccc1NC1=C/C(=N\\S(=O)(=O)c2ccc(C(=O)O)cc2)c2ccccc2C1=O", "Potency": "active: 12.6 µM"}, {"smiles": "CC1CC(C)CN(CCCNC(=O)CCNC(=O)Cn2cnc3ccccc3c2=O)C1", "note": "(configuration not stated)", "Potency": "inactive"}, {"smiles": "O=C(COC(=O)Cc1ccc(F)cc1)NCc1ccco1", "Potency": "active: 50.1 µM"}, {"smiles": "Cc1ccc(N2CCn3c2nc2c3c(=O)n(CCCc3ccccc3)c(=O)n2C)cc1", "Potency": "inconclusive: 79.4 µM [inhibitor, single point]"}, {"smiles": "Nn1cc(-c2ccccc2)nc1SCC(=O)N1CCN(S(=O)(=O)c2ccccc2)CC1", "Potency": "inconclusive: 50.1 µM [inhibitor, partial curve]"}, {"smiles": "CN1CCN(CCCCC(=O)c2ccccc2)CC1", "Potency": "inconclusive: 79.4 µM [inhibitor, single point]"}, {"smiles": "COc1cccc(-c2nc(Cc3ccc(OC)c(OC)c3)no2)c1", "Potency": "inconclusive: 100 µM [inhibitor, single point]"}, {"smiles": "Cc1ccc(-c2cc(-c3ccccc3)nc(N)c2C#N)o1", "Potency": "inconclusive: 35.5 µM [inhibitor, full curve, poor fit]"}, {"smiles": "CC(=O)Nc1ccc(C)cc1-c1nc2ccccc2n(CC(=O)c2ccc(Cl)cc2)c1=O", "Potency": "inactive"}, {"smiles": "C=CCn1c(O)c(N=NC(=S)Nc2ccccc2C)c2cc(S(=O)(=O)N3CCOCC3)ccc21", "Potency": "inconclusive: 31.6 µM [inhibitor, single point]"}, {"smiles": "Nc1ncnc(Oc2cccc3cccnc23)c1[N+](=O)[O-]", "Potency": "active: 44.7 µM"}, {"smiles": "CC(=NCCc1ccccc1)C1=C(O)CCC1=O", "Potency": "inactive"}, {"smiles": "COC(=O)C1=CN(c2cccc(C(F)(F)F)c2)C=C(C(=O)OC)C1c1ccc(O)c(OC)c1", "Potency": "inconclusive: 70.8 µM [inhibitor, partial curve]"}, {"smiles": "Cc1ccc(-c2csc(NC(=O)c3ccc(-c4ccccc4)cc3)n2)o1", "Potency": "inconclusive: 22.4 µM [inhibitor, full curve]"}, {"smiles": "CC/C(O)=C(\\C#N)c1nnc2n1CCCCC2", "Potency": "active: 79.4 µM"}, {"smiles": "Cc1ccc(C(=O)/C=C/Nc2ccc(S(=O)(=O)Nc3cc(C)nc(C)n3)cc2)cc1", "Potency": "inconclusive: 79.4 µM [inhibitor, single point]"}, {"smiles": "Cn1c2ccccc2c(=O)c2c(=O)n(Cc3ccco3)c(-c3ccc(C(C)(C)C)cc3)nc21", "Potency": "inactive"}, {"smiles": "CCO[C@@H]1OC(C(=O)N2CCN(Cc3ccc4c(c3)OCO4)CC2)=C[C@H](c2csc3ccccc23)[C@H]1CCCO", "Potency": "inconclusive: 50.1 µM [inhibitor, partial curve]"}, {"smiles": "Cc1ccc(Cn2c(C)nc3ccc([N+](=O)[O-])cc3c2=O)cc1", "Potency": "inconclusive: 89.1 µM [inhibitor, single point]"}, {"smiles": "COc1ccc(NC(=O)CCNC(=O)C2CCN(S(=O)(=O)c3ccc(OC)cc3)CC2)cc1", "Potency": "inactive"}, {"smiles": "Cc1c(OCC(=O)NC(Cc2ccc(Cl)cc2)C(=O)O)ccc2c1oc(=O)c1ccccc12", "note": "(configuration not stated)", "Potency": "active: 56.2 µM"}, {"smiles": "COc1ccccc1CCC(=O)OCC(=O)c1c(N)n(CC(C)C)c(=O)n(C)c1=O", "Potency": "inconclusive: 89.1 µM [inhibitor, single point]"}, {"smiles": "CNc1ccc(Br)cc(C(=O)/C=C/c2ccc(OC)cc2)c1=O", "Potency": "active: 44.7 µM"}, {"smiles": "CC(C)(C)C(=O)NC(NC(=S)Nc1sc2c(c1C#N)CCCC2)C(Cl)(Cl)Cl", "note": "(configuration not stated)", "Potency": "inconclusive: 35.5 µM [inhibitor, full curve]"}, {"smiles": "CCCOc1cccc(CN2CCCCC2c2cccnc2)c1", "note": "(configuration not stated)", "Potency": "inconclusive: 89.1 µM [inhibitor, single point]"}, {"smiles": "C/C=C/c1ccc(OCCCCn2cncn2)c(OC)c1", "Potency": "active: 31.6 µM"}, {"smiles": "Cc1ccc(-n2cc(C(=O)O)c(=O)cc2C)c(C)c1", "Potency": "inconclusive: 56.2 µM [inhibitor, partial curve, poor fit]"}, {"smiles": "CCOc1ccc(OCCC(=O)OCC(=O)Nc2cc(OCC)c(N3CCOCC3)cc2OCC)cc1", "Potency": "inconclusive: 79.4 µM [inhibitor, single point]"}, {"smiles": "Cc1c(C(=O)OCC(C)C)[nH]c2c1C(=O)CC(c1ccco1)C2", "note": "(configuration not stated)", "Potency": "active: 50.1 µM"}, {"smiles": "Cc1nc2ccc(C(=O)N3CCCC(CO)(Cc4ccc(F)cc4F)C3)cc2nc1C", "note": "(configuration not stated)", "Potency": "inconclusive: 39.8 µM [inhibitor, single point]"}, {"smiles": "CCn1c(=O)c2c(n3c(=S)[nH]nc13)-c1ccccc1CC21CCCCC1", "Potency": "inactive"}, {"smiles": "CC(C)c1onc(C(=O)N2CCN(c3ccccc3)CC2)c1[N+](=O)[O-]", "Potency": "inconclusive: 79.4 µM [inhibitor, single point]"}, {"smiles": "COc1ccc(-n2cc(CNCCCn3ccnc3)c(-c3cccc(F)c3)n2)cc1", "Potency": "inconclusive: 79.4 µM [inhibitor, single point]"}, {"smiles": "Cc1cc(NC(=O)CSCC(=O)Nc2nc3ccccc3[nH]2)no1", "Potency": "inactive"}]}]}
